This is one part of the list. The full chains were built here from the parent and the listed change. Values near 0.05 are background.
B1: TEV protease; numbered along this chain (parent)
chain: MGESLFKGPRDYNPISSSICHLTNESDGHTTSLYGIGFGPFIITNKHLFRRNNGTLVVQSLHGVFKVKDTTTLQQHLVDGRDMIIIRMPKDFPPFPQKLKFREPQREERICLVTTNFQTKSMSSMVSDTSCTFPSGDGIFWKHWIQTKDGQCGSPLVSTRDGFIVGIHSASNFTNTNNYFTSVPKNFMELLTNQEAQQWVSGWRLNADSVLWGGHKVFMVKPEEPFQPVKEATQL

Variants of: B1
Assay: raw area under fraction-flipped curve 0-4 h after induction (AUC4h, not background-subtracted), DNA-recorder readout of cleavage of the substrate (dimensionless); higher = more cleavage of the substrate by the protease variant
Settings: temperature: 34 °C; time window: 0-4 h after rhamnose induction
Method: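 In vivo DNA recorder in E. coli TOP10(DE3) ΔrhaA at 34 °C. Each TEVp single-site mutant (parent TEVp 0) is paired with a single-site variant of the 7-mer TEVs (canonical ENLYFQ|S). The substrate sits between flexible linkers in a Bxb1-sfGFP-TEVs-SsrA fusion, so cleavage stabilises Bxb1 and speeds flipping of a recombination array, read by NGS. The value is the raw area under the fraction-flipped curve over 0-4 h after rhamnose induction (AUC4h), with ≥20 reads per time point. It is not background-subtracted; inactive controls average about 0.047.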
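Note: Bxb1 expression induced with 0.2% (w/v) L-rhamnose at OD600 near 0.5, cultures sampled hourly, flipped fraction per protease–substrate barcode pair counted by paired-end Illumina sequencing.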

Variant	area with substrate ENLYFAS	area with substrate ENLYFDS	area with substrate ENLYFES	area with substrate ENLYFFS	area with substrate ENLYFGS	area with substrate ENLYFHS	area with substrate ENLYFIS	area with substrate ENLYFKS	area with substrate ENLYFLS	area with substrate ENLYFMS	area with substrate ENLYFNS	area with substrate ENLYFPS	area with substrate ENLYFSS	area with substrate ENLYFTS	area with substrate ENLYFVS	area with substrate ENLYFWS	area with substrate ENLYFYS	area with substrate ENLYFRS	area with substrate ENLYFCS
MGESLFKGPRDYNPISSSICHLTNESDGHTTSLYGIGFGPFIITNKHLFRRNNGTLVVQSLHGVFKVKDTTTLQQHLVDGRDMIIIRMPKDFPPFPQKLKFREPQREERICLVTTNFQTKSMSSMVSDTSCTFPSGDGIFWKHWIQTKDGQCGSPLVSTRDGFIVGIHSASNFTNTNNYFTSVPKNFMELLTNQEAQQWVSGWRLNADSVLWGGHKVFMVKPEDPFQPVKEATQL [E224D]	0.0353	0.0595	0.0655	0.0576	0.0643	0.0537	0.0575	0.0687	0.0589	0.0628	0.0689	0.057	0.0548	0.0645	0.058	0.0538	0.0647	–	–
MGESLFKGPRDYNPISSSICHLTNESDGHTTSLYGIGFGPFIITNKHLFRRNNGTLVVQSLHGVFKVKDTTTLQQHLVDGRDMIIIRMPKDFPPFPQKLKFREPQREERICLVTTNFQTKSMSSMVSDTSCTFPSGDGIFWKHWIQTKDGQCGSPLVSTRDGFIVGIHSASNFTNTNNYFTSVPKNFMELLTNQEAQQWVSGWRLNADSVLWGGHKVFMVKWEEPFQPVKEATQL [P222W]	0.074	–	0.0626	0.0289	0.0484	–	0.0572	0.0572	0.0506	0.0696	0.0629	0.0437	0.0519	0.0454	–	0.0492	–	0.0692	–
MGESLFKGPRDYNPISSSICHLTNESDGHTTSLYGIGFGPFIITNKHLFRRNNGTLVVQSLHGVFKVKDTTTLQQHLVDGRDMIIIRMPKDFPPFPQKLKFREPQREERICLVTTNFQTKSMSSMVSDTSCTFPSGDGIFWKHWIQTKDGQCGSPLVSTRDGFIVGIHSASNFTNTNNYFTSVPKNFMELLTNQEAQQWVSGWRLNADSVLWGGHKVFAVKPEEPFQPVKEATQL [M219A]	0.0666	–	0.0627	0.0672	0.047	0.0657	0.0577	–	0.0622	0.0577	0.0559	0.0637	–	0.0642	0.0714	0.0543	0.0597	–	–
MGESLFKGPRDYNPISSSICHLTNESDGHTTSLYGIGFGPFIITNKHLFRRNNGTLVVQSLHGVFKVKDTTTLQQHLVDGRDMIIIRMPKDFPPFPQKLKFREPQREERICLVTTNFQTKSMSSMVSDTSCTFPSGDGIFWKHWIQTKDGQCGSPLVSTRDGFIVGIHSASNFTNTNNYFTSVPKNFMELLTNQEAQQWVSGWRLNADSVLWGGHKVFMQKPEEPFQPVKEATQL [V220Q]	0.0529	–	0.0663	0.0642	0.0638	0.0458	0.0555	0.062	–	0.0743	0.0646	0.059	0.0615	0.0583	0.0576	0.0571	–	–	0.0596
MGESLFKGPRDYNPISSSICHLTNESDGHTTSLYGIGFGPFIITNKHLFRRNNGTLVVQSLHGVFKVKDTTTLQQHLVDGRDMIIIRMPKDFPPFPQKLKFREPQREERICLVTTNFQTKSMSSMVSDTSCTFPSGDGIFWKHWIQTKDGQCGSPLVSTRDGFIVGIHSASNFTNTNNYFTSVPKNFMELLTNQEAQQWVSGWRLNADSVLWGGHKWFMVKPEEPFQPVKEATQL [V217W]	0.0478	–	0.0621	0.0645	0.0964	0.0475	0.0474	0.075	0.0633	0.0647	0.0529	0.0343	0.072	0.0641	0.0676	0.0426	–	0.0722	0.0668
MGESLFKGPRDYNPISSSICHLTNESDGHTTSLYGIGFGPFIITNKHLFRRNNGTLVVQSLHGVFKVKDTTTLQQHLVDGRDMIIIRMPKDFPPFPQKLKFREPQREERICLVTTNFQTKSMSSMVSDTSCTFPSGDGIFWKHWIQTKDGQCGSPLVSTRDGFIVGIHSASNFTNTNNYFTSVPKNFMELLTNQEAQQWVSGWRLNADSVLWGSHKVFMVKPEEPFQPVKEATQL [G214S]	0.0508	0.082	–	0.101	–	–	–	0.073	–	0.0595	–	–	–	–	0.0605	–	–	–	0.0709
MGESLFKGPRDYNPISSSICHLTNESDGHTTSLYGIGFGPFIITNKHLFRRNNGTLVVQSLHGVFKVKDTTTLQQHLVDGRDMIIIRMPKDFPPFPQKLKFREPQREERICLVTTNFQTKSMSSMVSDTSCTFPSGDGIFWKHWIQTKDGQCGSPLVSTRDGFIVGIHSASNFTNTNNYFTSVPKNFMELLTNQEAQQWVSGWRLNADSVLWGGHKVFMVKPLEPFQPVKEATQL [E223L]	0.0622	–	0.0658	0.0666	–	0.0687	0.0567	0.0565	0.221	0.0629	0.0605	0.0572	–	0.0737	0.0501	0.0579	0.0548	0.0639	0.0719
MGESLFKGPRDYNPISSSICHLTNESDGHTTSLYGIGFGPFIITNKHLFRRNNGTLVVQSLHGVFKVKDTTTLQQHLVDGRDMIIIRMPKDFPPFPQKLKFREPQREERICLVTTNFQTKSMSSMVSDTSCTFPSGDGIFWKHWIQTKDGQCGSPLVSTRDGFIVGIHSASNFTNTNNYFTSVPKNFMELLTNQEAQQWVSGWRLNADSVLWGGQKVFMVKPEEPFQPVKEATQL [H215Q]	0.0328	–	0.0595	–	–	0.0554	0.0648	0.0688	–	0.0504	0.0583	0.0536	–	0.0596	0.0573	0.0433	0.0699	0.0448	0.049
